# Results taken from PubChem BioAssay (NCATS).
# “And” between values parts separate entries of the source, which are not always exact repeats. Equal values may be shown once. Inconclusive means that the source gave no clear call. Such entries were picked first, then a sample of the others. Where the call is inconclusive, the potency comes from a doubtful curve fit. More than one record can exist for a structure, and the calls need not agree. The source made the active and inactive calls. Calls follow the shape of the dose curve; as a rule, active = well fitted curve in the direction sought with a large enough effect; inconclusive = small, poorly fitted or top-dose-only effect, or another doubt; inactive = no such curve, though single readings can be large; an effect the other way counts as inactive or inconclusive.
# Tested on: Zika virus NS2B-NS3 protease
# Experiment: Primary screen GU AMC qHTS for Zika virus inhibitors (AID 1347154); also: nearly all actives have a fitted effect of over 70% in size
# Settings: Zika NS2B-NS3 unlinked protease, AMC fluorogenic substrate; series mostly up to 54.1 µM
# Method in brief: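 Unlinked Zika NS2B hydrophilic domain–NS3 protease complex at 25 nM in 10 mM Tris-HCl pH 8.0, 0.01% Tween 20, with an AMC peptide substrate. Fluorescence change (340/450 nm) over 15 min at room temperature, normalized to controls, fitted to 4-parameter Hill.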
# Potency is read from the fitted curve at half-maximal effect; tags tell the direction and shape of the fitted curve.
row,Compound,Potency
1,Oc1ccc(C2CNCCc3c2cc(O)c(O)c3Cl)cc1 (stereo not given),"inconclusive: 9.61 µM [inhibitor, full curve] and active: 12.6 µM"
2,COc1ccc(CCN(C)CCCC(C#N)(c2ccc(OC)c(OC)c2)C(C)C)cc1OC (stereo not given),"inconclusive: 0.0156 µM [inhibitor, full curve, poor fit]"
3,c1ccc(CNc2nc(N3CCOc4ccccc43)nc3c2CCCC3)cc1,"inconclusive: 24.1 µM [inhibitor, partial curve]"
4,NC(N)=NC(=O)c1nc(Cl)c(N)nc1N,"inconclusive: 7.08 µM [inhibitor, partial curve, poor fit]"

# Tested on: not listed separately
# Experiment: ZIKV-mCherry secondary qHTS for Zika virus inhibitors (AID 1347158)
# Settings: Vero cells, ZIKV-mCherry infection imaging, 48-72 h; series mostly up to 49.2 µM
# Method in brief: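 After overnight seeding at 37 °C, Vero cells receive compound and then ZIKV-mCherry (MOI 1). Following 48-72 h infection, cells are fixed, counterstained with Hoechst, and imaged; percent infected cells is derived from an mCherry intensity cut-off of 450 RFU.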
row,Compound,Potency
1,COC(=O)Nc1nc2ccc(C(=O)c3ccccc3)cc2[nH]1,inactive
2,O=c1c(O)c(-c2ccc(O)cc2O)oc2cc(O)cc(O)c12,inactive
3,CC(C)(Sc1ccc(CCN(CCCCC2CCCCC2)C(=O)NC2CCCCC2)cc1)C(=O)O,"inconclusive: 15.8 µM [inhibitor, full curve]"
4,O=C(Nc1cccc2c(=O)cc(-c3nn[nH]n3)oc12)c1ccc(OCCCCc2ccccc2)cc1,"inconclusive: 20 µM [inhibitor, full curve, poor fit]"

# Tested on: Zika virus NS2B-NS3 protease (unlinked complex)
# Experiment: Primary screen GU Rhodamine qHTS for Zika virus inhibitors: Unlinked NS2B-NS3 protease assay (AID 1347159); also: nearly all actives have a fitted effect of over 60% in size
# Settings: Recombinant ZIKV NS2B-NS3 protease, Rhodamine110 substrate fluorescence; series mostly up to 107 µM
# Method in brief: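 A qHTS format was used, with compound concentrations ranging up to 114 microM. Each compound was preincubated with 25 nM NS2B-NS3 protease, and the substrate was then added at 1.5 microM. Curves were fitted with a 4-parameter Hill model.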
row,Compound,Potency
1,CC1=C(C(=O)Nc2cc3cn[nH]c3cc2F)C(c2ccc(C(F)(F)F)cc2)CC(=O)N1 (stereo not given),inactive
2,CC1=C(C(=O)Nc2cc3cn[nH]c3cc2F)C(c2ccc(Cl)cc2F)N=C(c2ccnc(Cl)c2)N1 (stereo not given),inactive
3,O=C(O)c1ccc2c(c1)nc(Nc1cccc(Cl)c1)c1ccncc12,active: 39.8 µM
4,CN(C)CCc1c[nH]c2ccc(C[C@H]3COC(=O)N3)cc12,inactive
5,CN(C)CCCNC(=O)c1ccc(-c2cc(O)c3ncccc3c2)cc1,"inconclusive: 89.1 µM [inhibitor, single point]"
6,c1cncc(CN2CCC(n3ncc4c(N5CCOCC5)nc(-c5ccc6[nH]ccc6c5)nc43)CC2)c1,inactive
7,Clc1ccc2ncc(-c3cccc(NC4CNC4)n3)n2c1,"inconclusive: 89.1 µM [inhibitor, single point]"
8,FC(F)c1nc2ccccc2n1-c1nc(N2CCOCC2)nc(N2CCOCC2)n1,inactive
9,Cc1ccccc1C(=O)c1ccc(Nc2ccc(Br)cc2N)cc1Cl,"inconclusive: 17.8 µM [inhibitor, full curve]"
10,CC(C)(Sc1ccc(CCN(CCCCC2CCCCC2)C(=O)NC2CCCCC2)cc1)C(=O)O,active: 3.55 µM
11,COCCOc1ccc2c(c1)ncn2-c1ccc2cccc(N3CCC(N)CC3)c2n1,inactive
12,O=c1[nH]nc(OCCCc2ccc(Cl)cc2)c(NCc2cccnc2)c1Br,"inconclusive: 50.1 µM [inhibitor, partial curve]"
13,C[C@H](c1ccc(F)cc1CCCC(=O)O)N(c1cc(F)ccc1F)S(=O)(=O)c1ccc(Cl)cc1,active: 14.1 µM
14,CC(C)(O)CCc1ccc(OCc2cc(-c3cccc(OC(F)F)c3)c3ncccc3c2)cc1,"inconclusive: 100 µM [inhibitor, single point]"
15,CCCCCN(CCC12CC3CC(CC(C3)C1)C2)C(=O)NCCCc1ccncc1,"inconclusive: 10 µM [inhibitor, partial curve]"
16,CN1c2ccccc2C(=O)N2CCc3c([nH]c4ccccc34)C21 (stereo not given),"inconclusive: 89.1 µM [inhibitor, single point]"
17,c1ccc(CNc2nc(N3CCOc4ccccc43)nc3c2CCCC3)cc1,inactive
